Data on eight molecules can be found in PMC4538817.

Sequences of proteins named here, by UniProt entry; tags and fusion partners are left off.
UniProt Q9Y6K9: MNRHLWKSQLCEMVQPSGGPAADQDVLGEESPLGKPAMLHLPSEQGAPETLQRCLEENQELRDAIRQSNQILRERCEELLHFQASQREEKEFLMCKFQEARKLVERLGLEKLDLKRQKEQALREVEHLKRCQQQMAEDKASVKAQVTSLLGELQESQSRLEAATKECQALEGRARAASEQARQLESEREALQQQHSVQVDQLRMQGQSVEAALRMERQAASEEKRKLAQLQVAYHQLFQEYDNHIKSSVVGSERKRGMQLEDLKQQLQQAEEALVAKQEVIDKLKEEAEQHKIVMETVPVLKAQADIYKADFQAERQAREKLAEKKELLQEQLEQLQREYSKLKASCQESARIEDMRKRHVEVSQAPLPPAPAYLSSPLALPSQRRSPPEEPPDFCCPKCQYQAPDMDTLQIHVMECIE

For experiment [1], the target named is T1, HA-tagged human TRAF2 (human), Q12933.
T1 chain: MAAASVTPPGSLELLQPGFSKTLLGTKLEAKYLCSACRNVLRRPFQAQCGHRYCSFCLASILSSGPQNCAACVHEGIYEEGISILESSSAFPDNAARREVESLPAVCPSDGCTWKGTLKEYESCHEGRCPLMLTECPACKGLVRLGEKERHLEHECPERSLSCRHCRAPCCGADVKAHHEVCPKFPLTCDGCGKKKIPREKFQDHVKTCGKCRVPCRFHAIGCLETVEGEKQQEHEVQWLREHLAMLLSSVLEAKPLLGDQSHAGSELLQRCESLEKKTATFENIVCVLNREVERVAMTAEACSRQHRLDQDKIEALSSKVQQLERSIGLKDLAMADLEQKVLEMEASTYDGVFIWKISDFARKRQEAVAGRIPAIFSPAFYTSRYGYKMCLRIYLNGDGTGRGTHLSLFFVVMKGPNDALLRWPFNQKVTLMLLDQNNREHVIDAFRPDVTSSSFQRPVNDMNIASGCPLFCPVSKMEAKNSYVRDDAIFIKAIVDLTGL
In words: co-IP; HEK293 (text: HEK293T), silenced or not for FKBP51 (siRNA), transfected with combinations of HA-IKKα, -IKKβ, -IKKγ, -TAK1, -TRAF2 and Flag-FKBP51; precipitating antibody not told. The note with it: remark: other sources report otherwise.

In experiment [2] the target is T2, Flag-FKBP51 (pRK5 FKBP51 WT) (UniProt Q13451).
T2 sequence: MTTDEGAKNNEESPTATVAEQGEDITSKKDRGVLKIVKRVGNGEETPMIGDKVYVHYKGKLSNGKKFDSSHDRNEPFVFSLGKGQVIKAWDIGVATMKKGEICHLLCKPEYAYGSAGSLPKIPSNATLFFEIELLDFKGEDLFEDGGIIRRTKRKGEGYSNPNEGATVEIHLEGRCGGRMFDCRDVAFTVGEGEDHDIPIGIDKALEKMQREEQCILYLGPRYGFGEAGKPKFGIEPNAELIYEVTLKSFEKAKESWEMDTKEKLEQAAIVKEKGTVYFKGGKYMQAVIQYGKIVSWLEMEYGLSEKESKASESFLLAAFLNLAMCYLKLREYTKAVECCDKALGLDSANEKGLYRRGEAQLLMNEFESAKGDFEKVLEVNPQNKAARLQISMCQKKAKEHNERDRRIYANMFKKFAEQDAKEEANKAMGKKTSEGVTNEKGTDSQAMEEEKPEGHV
Nature of the experiment: co-IP; HEK293T (legends: HEK293) co-transfected with Flag-FKBP51 or its mutants and HA-tagged partners; anti-Flag immunoprecipitation, blot with anti-HA, anti-TRAF2 or anti-IKKα/β; RIPA buffer; with or without FK506 (Figure 3B); the precipitating antibody is not told for Figures 3B and 4B.

The target of experiment [3] is T3, endogenous IKKα (human (endogenous in A375)) (UniProt O15111).
T3 sequence: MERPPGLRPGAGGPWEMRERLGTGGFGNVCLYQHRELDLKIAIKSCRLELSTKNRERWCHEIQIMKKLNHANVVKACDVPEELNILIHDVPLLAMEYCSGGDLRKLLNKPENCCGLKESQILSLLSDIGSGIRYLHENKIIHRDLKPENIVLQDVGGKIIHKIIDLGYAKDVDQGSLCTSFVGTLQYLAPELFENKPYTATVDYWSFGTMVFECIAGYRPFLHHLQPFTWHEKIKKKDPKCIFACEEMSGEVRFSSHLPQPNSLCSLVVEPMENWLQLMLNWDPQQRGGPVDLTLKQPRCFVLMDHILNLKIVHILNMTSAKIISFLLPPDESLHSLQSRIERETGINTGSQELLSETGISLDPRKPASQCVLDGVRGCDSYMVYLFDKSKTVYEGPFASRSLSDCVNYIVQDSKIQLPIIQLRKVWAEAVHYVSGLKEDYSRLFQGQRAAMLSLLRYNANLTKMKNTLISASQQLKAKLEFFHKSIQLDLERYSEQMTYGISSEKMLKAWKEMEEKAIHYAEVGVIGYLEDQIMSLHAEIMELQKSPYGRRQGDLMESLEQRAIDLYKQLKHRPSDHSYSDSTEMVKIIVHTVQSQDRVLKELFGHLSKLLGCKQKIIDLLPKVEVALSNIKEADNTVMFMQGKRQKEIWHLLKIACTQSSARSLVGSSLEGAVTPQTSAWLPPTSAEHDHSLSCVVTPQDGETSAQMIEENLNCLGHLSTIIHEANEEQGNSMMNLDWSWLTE
Nature of the experiment: co-IP; endogenous IKKα and endogenous FKBP51 immunoprecipitated from whole lysates of A375 melanoma cells; immunoblot. (In general: Immunoblotting shows a protein as a band on a membrane.)

For experiment [4], the target named is HA-tagged human IKKγ (human) (UniProt Q9Y6K9). In words: co-IP; HEK293 transfected; IKKγ immunoprecipitated (anti-IKKγ), blot with anti-HA, anti-IKKα/β, anti-TRAF2 or anti-Flag; RIPA buffer; cells silenced or not for FKBP51 (Figure 2B); with Flag-FKBP51 or its mutants (Figure 5B, 5C).
Experiment [5] deals with HA-tagged human IKKγ (human), Q9Y6K9. The experiment is described as above. The note with it: remark: other sources report otherwise.

Substitutions are numbered along the chain they refer to. Names and notes keep the numbering of the source. No constants are given. Whether binding was seen depends on the method and setting. In cells and extracts the contact can be indirect. Some results given as binding are weak or reduced against the parent protein; the word gives no strength. For some assays here: Where a sequence is shown, tags or fusion partners need not be part of it.

B1: HA-tagged human TAK1, O43318 1-606 (protein)
chain: MSTASAASSSSSSSAGEMIEAPSQVLNFEEIDYKEIEVEEVVGRGAFGVVCKAKWRAKDVAIKQIESESERKAFIVELRQLSRVNHPNIVKLYGACLNPVCLVMEYAEGGSLYNVLHGAEPLPYYTAAHAMSWCLQCSQGVAYLHSMQPKALIHRDLKPPNLLLVAGGTVLKICDFGTACDIQTHMTNNKGSAAWMAPEVFEGSNYSEKCDVFSWGIILWEVITRRKPFDEIGGPAFRIMWAVHNGTRPPLIKNLPKPIESLMTRCWSKDPSQRPSMEEIVKIMTHLMRYFPGADEPLQYPCQYSDEGQSNSATSTGSFMDIASTNTSNKSDTNMEQVPATNDTIKRLESKLLKNQAKQQSESGRLSLGASRGSSVESLPPTSEGKRMSADMSEIEARIAATTAYSKPKRGHRKTASFGNILDVPEIVISGNGQPRRRSIQDLTVTGTEPGQVSSRSSSPSVRMITTSGPTSEKPTRSHPWTPDDSTDTNGSDNSIPMAYLTLDHQLQPLAPCPNSKESMAVFEQHCKMAQEYMKVQTEIALLLQRKQELVAELDQDEKDQQNTSRLVQEHKKLLDENKSLSTYYQQCKKQLEVIRSQQQKRQGTS
For B1, the binding result in experiment [1] is reported as “binds”.

B2: HA-tagged human TAK1 (protein, UniProt O43318 1-606)
chain: B1 chain
For the molecule B2, the binding entry in experiment [2] is “binds”.

B3: endogenous FKBP51 (protein, UniProt Q13451 1-457)
chain: T2 sequence
In the case of B3, the binding entry in experiment [3] was “binds”.

B4: Flag-FKBP51 (pRK5 FKBP51 WT) (protein, UniProt Q13451 1-457)
chain: T2 sequence
For the molecule B4, in experiment [4], the binding result is on record as “binds”.

B5: Flag-FKBP51-mutTPR (pRK5 FKBP51-TPR-mut; K352A/R356A) (protein, UniProt Q13451 1-457)
chain: T2 sequence with K352A, R356A
On to B5, for which the binding result in experiment [4] was “no binding”.

B6: Flag-FKBP51-mutPPIase (pRK5 FKBP51-PPIase-mut; FD67DV) (protein, UniProt Q13451 1-457)
chain: T2 sequence with F67D, D68V
For the molecule B6, the binding result in experiment [4] was “no binding”.

B7: HA-tagged human TRAF2, Q12933 1-501 (protein)
chain: T1 chain
As for B7, the binding entry in experiment [5] is listed as “binds”.

B8: HA-tagged human IKKα, O15111 1-745 (protein)
chain: T3 sequence
With B8, the binding result in experiment [5] was “binds”.
